T1: CD19 (UniProt P15391 20-291, limits assumed)
T1 sequence (looked up): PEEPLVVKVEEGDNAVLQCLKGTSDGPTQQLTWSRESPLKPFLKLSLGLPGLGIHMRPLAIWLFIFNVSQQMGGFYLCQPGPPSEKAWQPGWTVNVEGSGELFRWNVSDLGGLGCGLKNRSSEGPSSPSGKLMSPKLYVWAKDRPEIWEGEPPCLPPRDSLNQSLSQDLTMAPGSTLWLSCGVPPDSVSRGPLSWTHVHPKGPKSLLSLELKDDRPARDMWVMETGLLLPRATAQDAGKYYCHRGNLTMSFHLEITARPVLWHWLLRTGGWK

B1: human 4-1BB (receptor)
chain: not shown
notes: Soluble antigen in Octet; construct not described

Experiments:
SI-49P9 = target: T2, SI-49P9; assay: BLI (Octet); conditions not stated; D4 is the ligand 41BBL
T2 construct: penta-miniGNC; D1 αCD3, D2 αCD19, D3 NKG2D receptor dimer, D4 41BBL, D5 αPD-L1

SI-75P4 = target: T3, SI-75P4; assay: BLI (Octet), binder on AHC sensor, 100 nM human antigen, 1:1 fit; D4 is the ligand 41BBL
T3 construct: penta-miniGNC; D1 αEGFR, D2 αHER3, D3 αCD3 (Fab), D4 41BBL (ligand of the 4-1BB receptor), D5 αPD-L1
T3 sequence (chain, as listed by the source, chain 1 of 2): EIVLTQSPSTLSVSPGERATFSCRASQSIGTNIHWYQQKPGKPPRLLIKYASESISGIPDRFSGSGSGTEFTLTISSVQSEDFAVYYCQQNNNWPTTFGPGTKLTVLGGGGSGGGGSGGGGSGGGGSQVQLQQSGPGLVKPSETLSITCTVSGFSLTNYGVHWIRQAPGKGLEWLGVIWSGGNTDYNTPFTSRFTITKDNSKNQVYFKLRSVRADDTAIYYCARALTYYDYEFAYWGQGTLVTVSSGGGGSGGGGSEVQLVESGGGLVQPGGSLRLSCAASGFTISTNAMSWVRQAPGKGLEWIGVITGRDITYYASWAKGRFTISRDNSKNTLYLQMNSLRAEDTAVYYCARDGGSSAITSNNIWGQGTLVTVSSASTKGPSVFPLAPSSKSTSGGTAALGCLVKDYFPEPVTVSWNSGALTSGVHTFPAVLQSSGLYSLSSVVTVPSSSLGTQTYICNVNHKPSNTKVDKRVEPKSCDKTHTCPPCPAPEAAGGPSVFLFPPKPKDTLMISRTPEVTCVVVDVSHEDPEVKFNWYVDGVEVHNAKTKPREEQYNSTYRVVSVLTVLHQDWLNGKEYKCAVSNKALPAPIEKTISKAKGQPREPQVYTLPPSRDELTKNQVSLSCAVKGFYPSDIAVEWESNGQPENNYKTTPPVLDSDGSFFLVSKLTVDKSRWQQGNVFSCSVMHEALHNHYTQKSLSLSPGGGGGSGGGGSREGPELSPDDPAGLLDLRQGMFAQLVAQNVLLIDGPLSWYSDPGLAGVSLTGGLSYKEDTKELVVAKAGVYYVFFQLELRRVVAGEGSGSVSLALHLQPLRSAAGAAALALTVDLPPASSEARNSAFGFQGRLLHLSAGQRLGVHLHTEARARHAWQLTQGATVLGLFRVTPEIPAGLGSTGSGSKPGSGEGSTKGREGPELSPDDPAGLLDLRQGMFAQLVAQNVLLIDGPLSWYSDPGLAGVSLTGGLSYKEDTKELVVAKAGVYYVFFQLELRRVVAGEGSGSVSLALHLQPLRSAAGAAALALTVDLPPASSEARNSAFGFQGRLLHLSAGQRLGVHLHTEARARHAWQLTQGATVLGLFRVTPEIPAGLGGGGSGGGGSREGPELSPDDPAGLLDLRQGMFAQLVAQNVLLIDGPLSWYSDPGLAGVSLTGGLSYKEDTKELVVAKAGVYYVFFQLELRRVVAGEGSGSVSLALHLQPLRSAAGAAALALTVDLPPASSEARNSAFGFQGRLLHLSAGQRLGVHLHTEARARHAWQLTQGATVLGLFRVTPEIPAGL
T3 sequence (chain, as listed by the source, chain 2 of 2): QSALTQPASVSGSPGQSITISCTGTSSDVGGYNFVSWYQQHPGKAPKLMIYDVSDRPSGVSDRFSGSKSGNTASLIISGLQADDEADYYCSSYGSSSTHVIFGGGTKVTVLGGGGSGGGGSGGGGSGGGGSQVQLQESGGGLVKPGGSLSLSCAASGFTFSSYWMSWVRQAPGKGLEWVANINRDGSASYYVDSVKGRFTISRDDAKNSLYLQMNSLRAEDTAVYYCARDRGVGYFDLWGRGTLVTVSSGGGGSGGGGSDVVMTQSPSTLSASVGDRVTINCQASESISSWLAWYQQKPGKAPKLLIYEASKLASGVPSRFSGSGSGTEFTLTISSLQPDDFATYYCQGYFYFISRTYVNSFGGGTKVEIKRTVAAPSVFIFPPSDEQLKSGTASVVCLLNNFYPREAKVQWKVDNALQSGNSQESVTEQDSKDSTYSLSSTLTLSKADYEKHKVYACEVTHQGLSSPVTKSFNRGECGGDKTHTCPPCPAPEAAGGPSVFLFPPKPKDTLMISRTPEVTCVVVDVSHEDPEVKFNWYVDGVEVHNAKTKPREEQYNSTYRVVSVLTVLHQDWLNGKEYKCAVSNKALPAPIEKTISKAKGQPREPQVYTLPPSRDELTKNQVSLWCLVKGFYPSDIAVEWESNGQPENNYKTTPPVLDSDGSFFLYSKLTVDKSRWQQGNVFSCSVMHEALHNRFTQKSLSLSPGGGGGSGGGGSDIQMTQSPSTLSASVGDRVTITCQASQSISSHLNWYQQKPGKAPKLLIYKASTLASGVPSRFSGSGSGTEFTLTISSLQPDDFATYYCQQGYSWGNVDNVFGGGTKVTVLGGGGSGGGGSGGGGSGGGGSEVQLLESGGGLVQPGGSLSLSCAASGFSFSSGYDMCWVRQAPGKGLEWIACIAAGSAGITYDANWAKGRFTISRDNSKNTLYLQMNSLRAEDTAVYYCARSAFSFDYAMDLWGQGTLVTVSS

CD19 = target: T1, CD19; assay: BLI (Octet); conditions not stated
human 4-1BB = target: B1; assay: BLI (Octet); conditions not stated
Sequence of human 4-1BB (Q07011 24-186 limits assumed): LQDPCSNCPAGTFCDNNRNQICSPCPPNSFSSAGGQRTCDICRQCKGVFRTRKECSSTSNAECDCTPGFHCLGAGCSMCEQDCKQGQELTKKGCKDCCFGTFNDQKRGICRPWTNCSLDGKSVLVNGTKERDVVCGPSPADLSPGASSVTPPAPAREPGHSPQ

human PD-L1 = target: T4, human PD-L1 (human, UniProt Q9NZQ7 in part); assay: BLI (Octet); conditions not stated
Sequence of human PD-L1 (Q9NZQ7 19-238 limits assumed): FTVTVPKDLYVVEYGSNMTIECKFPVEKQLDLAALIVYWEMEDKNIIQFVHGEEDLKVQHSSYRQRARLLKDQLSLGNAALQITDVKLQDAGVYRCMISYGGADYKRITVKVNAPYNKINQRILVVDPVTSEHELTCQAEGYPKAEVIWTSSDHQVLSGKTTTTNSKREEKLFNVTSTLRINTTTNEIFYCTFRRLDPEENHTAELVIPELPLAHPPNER
T4 construct: Soluble antigen in Octet; bought; also called human PD-L1 (Acro PD1-H5229)

human CD3 = target: T5, human CD3 (human, UniProt P07766 23-126; P04234 22-105); assay: BLI (Octet); conditions not stated
Sequence of human CD3 (P07766 23-126, chain 1 of 2): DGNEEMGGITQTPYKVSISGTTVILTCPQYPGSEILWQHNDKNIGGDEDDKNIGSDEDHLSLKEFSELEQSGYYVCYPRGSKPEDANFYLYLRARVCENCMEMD
Sequence of human CD3 (P04234 22-105, chain 2 of 2, further chain): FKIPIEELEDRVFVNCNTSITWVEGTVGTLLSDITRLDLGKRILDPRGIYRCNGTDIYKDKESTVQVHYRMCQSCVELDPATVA
T5 construct: also called His-tagged human CD3; human CD3 (Acro CDD-H52W1)

NKG2D ligand = assay: BLI (Octet); conditions and ligand not stated

Kd (SI-49P9) [nM] | Kd (SI-75P4) [nM] | Kd (CD19) [nM] | Kd (human 4-1BB) [nM] | Kd (human PD-L1) [nM] | Kd (human CD3) [nM] | Kd (NKG2D ligand) [nM] | Binder
112 | 115 |  |  |  |  |  | B1
 |  | 2.98 | 7.71 | 1.08 | 36.3 | 24.3 | SI-49P8 (other, penta-miniGNC; D1 αCD3, D2 αCD19, D3 NKG2D receptor dimer, D4 α4-1BB, D5 αPD-L1) chain 1: EIVMTQSPSTLSASVGDRVIITCQASESISSWLAWYQQKPGKAPKLLIYEASKLASGVPSRFSGSGSGAEFTLTISSLQPDDFATYYCQGYFYFISRTYVNSFGCGTKLTVLGSTGSGSKPGSGEGSTKGEVQLVESGGGLVQPGGSLRLSCTASGFTISTNAMSWVRQAPGKCLEWVGVITGRDITYYASWAKGRFTISRDTSKNTVYLQMNSLRAEDTAVYYCARDGGSSAITSNNIWGQGTLVTVSTGGGGSGGGGSFLNSLFNQEVQIPLTESYCGPCPKNWICYKNNCYQFFDESKNWYESQASCMSQNASLLKVYSKEDQDLLKLVKSYHWMGLVHIPTNGSWQWEDGSILSPNLLTIIEMQKGDCALYASSFKGYIENCSTPNTYICMQRTVASTKGPSVFPLAPSSKSTSGGTAALGCLVKDYFPEPVTVSWNSGALTSGVHTFPAVLQSSGLYSLSSVVTVPSSSLGTQTYICNVNHKPSNTKVDKRVEPKSCDKTHTCPPCPAPEAAGGPSVFLFPPKPKDTLMISRTPEVTCVVVDVSHEDPEVKFNWYVDGVEVHNAKTKPREEQYASTYRVVSVLTVLHQDWLNGKEYKCAVSNKALPAPIEKTISKAKGQPREPQVCTLPPSRDELTKNQVSLSCAVKGFYPSDIAVEWESNGQPENNYKTTPPVLDSDGSFFLVSKLTVDKSRWQQGNVFSCSVMHEALHNHYTQKSLSLSPGGGGGSGGGGSRSLVESGGGLVQPGGSLRLSCTASGFTISSYHMQWVRQAPGKCLEYIGTISSGGNVYYASSARGRFTISRPSSKNTVDLQMNSLRAEDTAVYYCARDSGYSDPMWGQGTLVTVSSGGGGSGGGGSGGGGSGGGGSDVVMTQSPSSVSASVGDRVTITCQASQNIRTYLSWYQQKPGKAPKLLIYAAANLASGVPSRFSGSGSGTDFTLTISDLEPGDAATYYCQSTYLGTDYVGGAFGCGTKVEIK chain 2: ENVLTQSPASLSASPGERVTITCSASSSVSYMHWYQQKPGQAPKLWIYDTSKLASGVPSRFSGSGSGNDHTLTISSMEPEDFATYYCFQGSVYPFTFGQGTKLEIKGSTGSGSKPGSGEGSTKGQVTLKESGPGLVQPGQTLRLTCAFSGFSLSTSGMGVGWIRQPPGKGLEWLAHIWWDDDKRYNPALKSRLTISKDTSKNQVYLQMNSLDAEDTAVYYCARMELWSYYFDYWGQGTLVTVSTGGGGSGGGGSFLNSLFNQEVQIPLTESYCGPCPKNWICYKNNCYQFFDESKNWYESQASCMSQNASLLKVYSKEDQDLLKLVKSYHWMGLVHIPTNGSWQWEDGSILSPNLLTIIEMQKGDCALYASSFKGYIENCSTPNTYICMQRTVRTVAAPSVFIFPPSDEQLKSGTASVVCLLNNFYPREAKVQWKVDNALQSGNSQESVTEQDSKDSTYSLSSTLTLSKADYEKHKVYACEVTHQGLSSPVTKSFNRGECGG[human IgG1 Fc with L234A L235A N297A K322A S354C T366W (EU numbers) cut from this listing]GGGGSGGGGSEVQLLESGGGLVQPGGSLRLSCAASGFSFSSGYDMCWVRQAPGKCLEWIACIAAGSAGITYDANWAKGRFTISRDNSKNTLYLQMNSLRAEDTAVYYCARSAFSFDYAMDLWGQGTLVTVSSGGGGSGGGGSGGGGSGGGGSDIQMTQSPSTLSASVGDRVTITCQASQSISSHLNWYQQKPGKAPKLLIYKASTLASGVPSRFSGSGSGTEFTLTISSLQPDDFATYYCQQGYSWGNVDNVFGCGTKVEIK
